T1: hsIL-6R-BAP1 (biotinylated hsIL-6R-Avitag) (human, UniProt P08887 20-357, biotin on the C-terminal AviTag sequence (SEQ ID NO: 36))
T1 construct: biotinylated by co-expressed BirA; also called biotinylated soluble human IL6R
T1 sequence: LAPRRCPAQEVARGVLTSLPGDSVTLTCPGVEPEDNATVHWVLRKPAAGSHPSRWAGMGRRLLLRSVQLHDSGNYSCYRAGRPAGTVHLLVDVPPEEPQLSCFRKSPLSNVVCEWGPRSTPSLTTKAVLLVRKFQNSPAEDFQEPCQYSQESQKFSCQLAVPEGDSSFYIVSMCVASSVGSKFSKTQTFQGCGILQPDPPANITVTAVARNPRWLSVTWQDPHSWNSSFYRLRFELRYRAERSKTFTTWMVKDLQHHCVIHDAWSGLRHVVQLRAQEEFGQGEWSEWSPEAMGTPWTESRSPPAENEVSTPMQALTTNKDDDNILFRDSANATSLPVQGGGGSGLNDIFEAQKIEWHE

B1: IL6R90H1006/VK1-39-k0MT (without protease treatment) (antibody, human IgG1, kappa)
heavy: EVQLVESGGGLVQPGGSLRLSCAASGFTFDDYGMSWVRQAPGKALEWVSAISWNGNNTYYTESMKGRFTISRDNAKNTLYLQMNSLRPEDTAVYYCVKGSTAIVGVPPTYPDEYDYWGQGTLVTVSSASTKSGGSGLSGRSDNHGSSGGGPSVFPLAPSSKSTSGGTAALGCLVKDYFPEPVTVSWNSGALTSGVHTFPAVLQSSGLYSLSSVVTVPSSSLGTQTYICNVNHKPSNTKVDKKV[sequence of human IgG1 Fc not given]
light: DIQMTQSPSSLSASVGDRVTITCRASQSISSYLNWYQQKPGKAPKLLIYAASSLQSGVPSRFSGSGSGTDFTLTISSLQPEDFATYYCLQFDSYPLTFGGGTKVEIKRTVAAPSVFIFPPSDEQLKSGTASVVCLLNNFYPREAKVQWKVDNALQSGNSQESVTEQDSKDSTYSLSSTLTLSKADYEKHKVYACEVTHQGLSSPVTKSFNRGEC
notes: Uncleaved IgG antibody-like molecule
B2: IL6R90H1004/VK1-39-k0MT (without protease treatment) (antibody, human IgG1, kappa)
heavy: EVQLVESGGGLVQPGGSLRLSCAASGFTFDDYGMSWVRQAPGKALEWVSAISWNGNNTYYTESMKGRFTISRDNAKNTLYLQMNSLRPEDTAVYYCVKGSTAIVGVPPTYPDEYDYWGQGTLVTVSGGSGLSGRSDNHGSSGGSS[sequence of human IgG1 constant region not given]
light: DIQMTQSPSSLSASVGDRVTITCRASQSISSYLNWYQQKPGKAPKLLIYAASSLQSGVPSRFSGSGSGTDFTLTISSLQPEDFATYYCLQFDSYPLTFGGGTKVEIKRTVAAPSVFIFPPSDEQLKSGTASVVCLLNNFYPREAKVQWKVDNALQSGNSQESVTEQDSKDSTYSLSSTLTLSKADYEKHKVYACEVTHQGLSSPVTKSFNRGEC
notes: as for B1
B3: IL6R90H1002/VK1-39-k0MT (without protease treatment) (antibody, human IgG1, kappa)
heavy: EVQLVESGGGLVQPGGSLRLSCAASGFTFDDYGMSWVRQAPGKALEWVSAISWNGNNTYYTESMKGRFTISRDNAKNTLYLQMNSLRPEDTAVYYCVKGSTAIVGVPPTYPDEYDYWGQGTLVTVSSASSGGSGLSGRSDNHGSSGGTKGPSVFPLAPSSKSTSGGTAALGCLVKDYFPEPVTVSWNSGALTSGVHTFPAVLQSSGLYSLSSVVTVPSSSLGTQTYICNVNHKPSNTKVDKKV[sequence of human IgG1 Fc not given]
light: DIQMTQSPSSLSASVGDRVTITCRASQSISSYLNWYQQKPGKAPKLLIYAASSLQSGVPSRFSGSGSGTDFTLTISSLQPEDFATYYCLQFDSYPLTFGGGTKVEIKRTVAAPSVFIFPPSDEQLKSGTASVVCLLNNFYPREAKVQWKVDNALQSGNSQESVTEQDSKDSTYSLSSTLTLSKADYEKHKVYACEVTHQGLSSPVTKSFNRGEC
notes: uncleaved
B4: IL6R90H1005/VK1-39-k0MT (without protease treatment) (antibody, human IgG1, kappa)
heavy: EVQLVESGGGLVQPGGSLRLSCAASGFTFDDYGMSWVRQAPGKALEWVSAISWNGNNTYYTESMKGRFTISRDNAKNTLYLQMNSLRPEDTAVYYCVKGSTAIVGVPPTYPDEYDYWGQGTLVTVSSASTKLSGRSDNHGGPSVFPLAPSSKSTSGGTAALGCLVKDYFPEPVTVSWNSGALTSGVHTFPAVLQSSGLYSLSSVVTVPSSSLGTQTYICNVNHKPSNTKVDKKV[sequence of human IgG1 Fc not given]
light: DIQMTQSPSSLSASVGDRVTITCRASQSISSYLNWYQQKPGKAPKLLIYAASSLQSGVPSRFSGSGSGTDFTLTISSLQPEDFATYYCLQFDSYPLTFGGGTKVEIKRTVAAPSVFIFPPSDEQLKSGTASVVCLLNNFYPREAKVQWKVDNALQSGNSQESVTEQDSKDSTYSLSSTLTLSKADYEKHKVYACEVTHQGLSSPVTKSFNRGEC
notes: as for B1
B5: PX02-R2_001-G1mISHI01/VK1-39-k0MT (before protease treatment) (antibody, human IgG1, kappa)
heavy: QLQLVESGGGLVQPGGSLRLSCTASGISFSISTMGWYRQAPGKQRELVATITSGGEAYYANSMKDRFTISRDNAENTVYLQMNRLKPEDSAVYYCNTKFPWSTDWDSRGQGTQVTVSGGSGLSGRSDNHGSSGGSS[sequence of human IgG1 constant region not given]
light: DIQMTQSPSSLSASVGDRVTITCRASQSISSYLNWYQQKPGKAPKLLIYAASSLQSGVPSRFSGSGSGTDFTLTISSLQPEDFATYYCLQFDSYPLTFGGGTKVEIKRTVAAPSVFIFPPSDEQLKSGTASVVCLLNNFYPREAKVQWKVDNALQSGNSQESVTEQDSKDSTYSLSSTLTLSKADYEKHKVYACEVTHQGLSSPVTKSFNRGEC
notes: as for B1
B6: PX02-R4_004-G1mISHI01/VK1-39-k0MT (before protease treatment) (antibody, human IgG1, kappa)
heavy: QVQLVESGGGLVQPGGSLRLSCTASGISFSISTMGWYRQAPGKQRELVATITSGGEAYYANSMKDRFTISRDNAENTVYLQMNRLKPEDSAVYYCNTKFPWSTDWDSRGQGTQVTVSGGSGLSGRSDNHGSSGGSS[sequence of human IgG1 constant region not given]
light: DIQMTQSPSSLSASVGDRVTITCRASQSISSYLNWYQQKPGKAPKLLIYAASSLQSGVPSRFSGSGSGTDFTLTISSLQPEDFATYYCLQFDSYPLTFGGGTKVEIKRTVAAPSVFIFPPSDEQLKSGTASVVCLLNNFYPREAKVQWKVDNALQSGNSQESVTEQDSKDSTYSLSSTLTLSKADYEKHKVYACEVTHQGLSSPVTKSFNRGEC
notes: Uncleaved

target: T1, hsIL-6R-BAP1 (biotinylated …); test: BLI (Octet HTX), hsIL-6R-BAP1 on streptavidin sensor, sample without protease treatment, 30 degrees C

Binding result, no binding:
B1, B2, B3, B4

target: T2, biotinylated plexin A1 (human, UniProt Q9UIW2 27-1253, biotin on the AviTag sequence (SEQ ID NO: 36)); test: BLI (Octet) as in Example 3
T2 construct: also called biotin-labeled human plexin A1; human plexin A1

Binding result, no binding:
B5, B6
